Measurements: the supplement of paper PMC12217912
Some of the results follow. Sequences were assembled here from the parent chain. Values near 0.05 are background.

B1: TEV protease; numbered along this chain (parent)
chain: MGESLFKGPRDYNPISSSICHLTNESDGHTTSLYGIGFGPFIITNKHLFRRNNGTLVVQSLHGVFKVKDTTTLQQHLVDGRDMIIIRMPKDFPPFPQKLKFREPQREERICLVTTNFQTKSMSSMVSDTSCTFPSGDGIFWKHWIQTKDGQCGSPLVSTRDGFIVGIHSASNFTNTNNYFTSVPKNFMELLTNQEAQQWVSGWRLNADSVLWGGHKVFMVKPEEPFQPVKEATQL

Variants of: B1
Experiment: raw area under fraction-flipped curve 0-4 h after induction (AUC4h, not background-subtracted), DNA-recorder readout of cleavage of the substrate (dimensionless); higher = more cleavage of the substrate by the protease variant
Details: temperature: 34 °C; time window: 0-4 h after rhamnose induction
Method: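 In vivo DNA recorder in E. coli TOP10(DE3) ΔrhaA at 34 °C. Each TEVp single-site mutant (parent TEVp 0) is paired with a single-site variant of the 7-mer TEVs (canonical ENLYFQ|S). The substrate sits between flexible linkers in a Bxb1-sfGFP-TEVs-SsrA fusion, so cleavage stabilises Bxb1 and speeds flipping of a recombination array, read by NGS. The value is the raw area under the fraction-flipped curve over 0-4 h after rhamnose induction (AUC4h), with ≥20 reads per time point. It is not background-subtracted; inactive controls average about 0.047.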
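Note: Bxb1 expression induced with 0.2% (w/v) L-rhamnose at OD600 near 0.5, cultures sampled hourly, flipped fraction per protease–substrate barcode pair counted by paired-end Illumina sequencing.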

Row | Variant | area with substrate ENLYAQS | area with substrate ENLYDQS | area with substrate ENLYEQS | area with substrate ENLYGQS | area with substrate ENLYHQS | area with substrate ENLYIQS | area with substrate ENLYKQS | area with substrate ENLYLQS | area with substrate ENLYMQS | area with substrate ENLYPQS | area with substrate ENLYQQS | area with substrate ENLYRQS | area with substrate ENLYSQS | area with substrate ENLYYQS | area with substrate ENLYNQS | area with substrate ENLYWQS | area with substrate ENLYCQS | area with substrate ENLYVQS | area with substrate ENLYTQS
1 | P94E | 0.0757 | 0.055 | 0.0621 | 0.0658 | 0.0598 | 0.114 | 0.0565 | 0.105 | 0.076 | 0.0878 | 0.058 | 0.043 | 0.111 | 0.0752 | – | – | – | – | –
2 | P104Y | 0.0505 | 0.0427 | 0.059 | 0.0556 | 0.0436 | 0.0396 | 0.0632 | – | 0.0609 | – | 0.0427 | 0.0569 | 0.0558 | 0.0534 | 0.0552 | 0.0565 | – | – | –
3 | K98Q | 0.0827 | 0.0657 | 0.0641 | 0.0425 | 0.0525 | – | 0.0669 | – | 0.081 | 0.0741 | 0.0443 | – | – | – | – | – | 0.105 | 0.138 | –
4 | F95R | 0.0661 | 0.061 | 0.0513 | 0.0626 | 0.0577 | 0.0478 | – | 0.0654 | 0.0519 | 0.0515 | – | 0.0609 | – | – | 0.0388 | 0.0537 | 0.0606 | 0.0685 | –
5 | L61N | 0.0625 | 0.0665 | 0.105 | 0.0665 | 0.0642 | 0.129 | 0.0174 | – | 0.0796 | 0.086 | – | 0.073 | – | – | 0.0734 | – | – | – | –
6 | Q105K | 0.0627 | 0.0623 | 0.07 | 0.0683 | 0.0596 | 0.127 | 0.0607 | 0.0869 | 0.0832 | 0.0753 | 0.0501 | 0.0668 | 0.0653 | 0.0543 | 0.0691 | 0.0752 | 0.0983 | 0.101 | –
7 | F92T | 0.0736 | 0.0496 | – | – | 0.0632 | 0.1 | – | – | – | 0.0502 | 0.0627 | 0.0568 | 0.066 | 0.069 | – | 0.0891 | 0.0704 | 0.142 | 0.0975
8 | K68F | 0.0835 | – | – | – | 0.0678 | 0.104 | 0.0602 | – | 0.0812 | 0.0849 | – | 0.0635 | – | – | 0.0723 | 0.0724 | – | – | 0.0574
9 | D79V | 0.0945 | – | 0.0719 | 0.0575 | 0.0654 | 0.113 | – | – | 0.0765 | 0.0804 | 0.0551 | 0.0632 | 0.074 | 0.0786 | 0.0711 | 0.0799 | – | 0.116 | –
10 | D79L | 0.0726 | 0.0664 | 0.0715 | 0.0812 | 0.0619 | 0.101 | – | – | 0.0848 | – | – | 0.0655 | – | – | 0.0648 | 0.0715 | – | 0.0922 | 0.0403
11 | S60V | 0.0601 | 0.0609 | 0.0598 | 0.0569 | 0.0566 | 0.108 | 0.0635 | – | 0.07 | 0.0695 | 0.0571 | 0.0579 | 0.0627 | 0.0603 | 0.072 | 0.0792 | 0.0709 | 0.108 | –
12 | S60F | 0.0706 | – | 0.0609 | 0.0588 | 0.0994 | 0.158 | 0.0311 | – | – | 0.0768 | – | 0.0606 | 0.111 | – | 0.0736 | – | 0.104 | 0.128 | 0.0748
13 | I85C | 0.0704 | 0.063 | 0.0612 | 0.0621 | 0.0523 | 0.0741 | 0.0575 | 0.0754 | 0.0758 | 0.0693 | 0.0754 | 0.0478 | 0.0721 | – | 0.0584 | 0.065 | 0.0529 | – | –
14 | D91C | 0.107 | – | – | 0.0246 | 0.0551 | – | 0.0397 | – | 0.0951 | – | 0.0934 | 0.108 | 0.0945 | – | 0.0657 | – | 0.0902 | 0.106 | –
15 | K100T | 0.0713 | – | 0.067 | 0.0715 | 0.0784 | – | 0.0648 | – | 0.0891 | 0.072 | 0.071 | – | 0.0887 | 0.0664 | 0.0327 | – | 0.0776 | 0.131 | –
16 | Q74G | 0.0657 | 0.0668 | 0.0689 | – | 0.0647 | – | 0.0613 | – | 0.0841 | 0.0797 | 0.0604 | 0.0582 | 0.0676 | – | 0.0614 | 0.083 | 0.0677 | – | –
17 | T71F | 0.058 | 0.051 | 0.0635 | 0.0798 | 0.0659 | 0.0879 | 0.0532 | 0.0794 | 0.0571 | 0.0643 | 0.0555 | 0.0599 | 0.0669 | 0.06 | 0.0633 | 0.0779 | – | – | –
18 | V78G | 0.0512 | 0.0546 | 0.0604 | 0.0653 | 0.0716 | – | – | – | – | 0.07 | – | – | 0.0603 | – | 0.0614 | 0.0742 | 0.0695 | 0.0672 | 0.0666
19 | D69H | 0.0625 | 0.0597 | 0.0643 | 0.0609 | 0.0635 | 0.0946 | 0.0543 | – | 0.0777 | 0.0608 | – | 0.0544 | 0.0697 | 0.0487 | 0.0562 | – | – | 0.0902 | 0.0851
20 | G63I | 0.0766 | – | 0.055 | – | 0.062 | – | 0.0558 | – | 0.0916 | 0.0533 | 0.0661 | – | 0.0776 | 0.0594 | 0.0609 | 0.0485 | 0.0761 | 0.0852 | –
21 | G63F | 0.0686 | 0.0742 | 0.058 | 0.0592 | 0.07 | 0.116 | 0.0613 | – | – | 0.0606 | – | 0.0462 | 0.0566 | – | 0.0712 | 0.0582 | – | – | 0.107
22 | G63M | 0.0777 | 0.0578 | 0.0526 | 0.07 | 0.0634 | 0.104 | 0.0584 | – | – | – | 0.0586 | 0.0716 | 0.0726 | – | 0.0635 | 0.0702 | 0.0729 | – | –
23 | F101Q | 0.0589 | – | 0.0518 | 0.0419 | 0.0547 | 0.0523 | 0.0456 | – | – | – | 0.0391 | 0.045 | – | 0.0265 | 0.0525 | – | 0.05 | – | –
24 | K66R | 0.0567 | – | 0.0595 | 0.0455 | 0.079 | 0.137 | 0.0689 | 0.0983 | 0.122 | – | 0.0742 | 0.0548 | – | 0.0553 | 0.0597 | 0.0975 | – | – | –
25 | P89E | 0.0615 | – | 0.104 | 0.06 | 0.0569 | 0.105 | 0.0582 | 0.0942 | 0.0758 | 0.062 | 0.0718 | 0.06 | 0.0755 | 0.0625 | 0.0701 | 0.0598 | – | 0.101 | 0.0711
26 | H76E | 0.077 | 0.071 | 0.0723 | – | 0.0631 | – | 0.0283 | – | – | 0.064 | 0.0699 | – | 0.0481 | 0.0409 | 0.0643 | 0.0798 | 0.0724 | 0.0754 | –
